Among all 110,000 compounds or so, about 230 (0.21%) showed an effect of 50% or more. The list shows a part of the results.
What follows are compounds tested against DPAP1 (Plasmodium falciparum, UniProt Q8IIJ9) (assay: primary screen, percent inhibition; read by cleavage of a fluorogenic dipeptide substrate; higher = more effect of the substance).
Set-up: species or system P. falciparum D10 trophozoite lysates; single well
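Further: 30 min substrate incubation versus DMSO and 10 µM JCP410 controls.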

Sequence of DPAP1 (Q8IIJ9 whole entry, looked up): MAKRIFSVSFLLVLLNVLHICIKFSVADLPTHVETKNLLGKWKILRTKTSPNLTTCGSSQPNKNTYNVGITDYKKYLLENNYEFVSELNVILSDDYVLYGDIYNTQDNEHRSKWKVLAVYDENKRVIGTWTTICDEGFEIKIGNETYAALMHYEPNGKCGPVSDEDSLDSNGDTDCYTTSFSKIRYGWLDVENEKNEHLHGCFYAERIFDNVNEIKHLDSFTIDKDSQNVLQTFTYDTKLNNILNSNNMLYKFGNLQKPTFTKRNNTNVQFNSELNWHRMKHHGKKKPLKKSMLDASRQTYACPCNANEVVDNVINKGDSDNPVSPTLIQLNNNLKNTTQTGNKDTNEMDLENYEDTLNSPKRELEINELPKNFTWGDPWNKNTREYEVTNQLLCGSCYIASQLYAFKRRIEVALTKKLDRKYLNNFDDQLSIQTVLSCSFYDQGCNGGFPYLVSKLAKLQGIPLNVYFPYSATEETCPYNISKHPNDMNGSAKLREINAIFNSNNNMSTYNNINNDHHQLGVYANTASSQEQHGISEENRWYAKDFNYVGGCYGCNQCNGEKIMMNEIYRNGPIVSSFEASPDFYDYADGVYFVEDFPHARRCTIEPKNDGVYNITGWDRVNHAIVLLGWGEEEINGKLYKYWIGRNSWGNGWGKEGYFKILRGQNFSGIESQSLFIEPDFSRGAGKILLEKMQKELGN

Row | SMILES | % Inhibition @ 10 uM [%]
1 | O=C(CCn1ccc2cc(S(=O)(=O)N3CCCC3)ccc21)NC1CCCc2ccccc21 (centres unmarked) | -10.9
2 | O=Nc1c2nc3ccccc3[nH]c-2c2ccccc12 | -1.69
3 | Cc1ccc(-n2nnc3ccccc3c2=O)cc1C | 1.8
4 | COCCNC(=O)C1CCN(c2nnc(-n3cccc3)s2)CC1 | -4.04
5 | O=C(CCc1ccccc1)N1CCCN(C(=O)CCc2ccccc2)CC1 | -5.14
6 | COc1cc(CN2CCN(c3ccc([N+](=O)[O-])cc3)CC2)cc(Br)c1O | -4.35
7 | COc1ccc(-c2csc(Nc3ccccc3OC)n2)cc1Br | 7.42
8 | CC(=O)Nc1ccccc1/C=C/c1ccc2cccc(OC(C)=O)c2n1 | 4.88
9 | COc1ccc(CO/C(O)=C2\C(C)=Nc3nnnn3C2c2cc(Cl)ccc2OC(F)F)cc1 (centres unmarked) | -0.465
10 | Cc1ccc(-n2nc3c(c2NC(=O)c2ccc(OC(C)C)cc2)CS(=O)(=O)C3)c(C)c1 | -0.812
11 | Cc1ccccc1C(=O)Nc1ccc(Cl)cn1 | -0.268
12 | Cc1ccsc1/C=C/C(=O)NCC(=O)O | -0.971
13 | Cc1cc(N2C(=O)CC(Cc3ccc(Cl)cc3)C2=O)no1 (centres unmarked) | -1.33
14 | O=c1oc2ccccc2n1CCCOc1ccccc1 | -4.6
15 | Cc1nc2ccccc2c2oc(C(=O)NC3CCCc4ccccc43)cc12 (centres unmarked) | -5.25
16 | C=CCNCC1OCc2ccccc2CO1 | -3.49
17 | CCOP(=O)(OCC)C(Nc1cccc(C(F)(F)F)c1)c1ccc(C)cc1 (centres unmarked) | -0.744
18 | O=C(/C=C/c1ccccc1Cl)NC1CC2CCC1C2 (centres unmarked) | 5.37
19 | O=C(NCCc1ccsc1)c1cnn2ccccc12 | -8.42
20 | O=C(COc1ccc(Cl)cc1)N(Cc1cccc(F)c1)C1CCS(=O)(=O)C1 (centres unmarked) | -3.12
21 | CCC(CC)C(=O)N1CCN(c2cccc(C)c2C)CC1 | -3.72
22 | Cc1ccc(S(=O)(=O)N(CC(C)C)CC(C)C)cc1[N+](=O)[O-] | -2.55
23 | Cc1cc(C)c(S(=O)(=O)NCc2ccc3c(c2)OCO3)cc1Br | -3.5
24 | O=C(CCCCC(=O)Nc1ccc2c(c1)OCCO2)Nc1ccc2c(c1)OCCO2 | 0.82
25 | CCCCN(CCCC)C(=O)c1cc(S(=O)(=O)N2CCCCC2)c[nH]1 | -4.37
26 | COc1ccc2ccccc2c1C1C(C(C)=O)=C(C)N=c2s/c(=C\c3ccco3)c(=O)n21 (centres unmarked) | 6.04

Row | SMILES | % Inhibition @ 10 uM [%]
27 | CCOc1ccccc1C1C2=C(O)CCCC2=Nc2ncnn21 (centres unmarked) | 3.32
28 | CCc1ccc(S(=O)(=O)N2CCSC2c2ccc(OC)c(Br)c2)cc1 (centres unmarked) | -1.6
29 | CC1(NC(=O)NCCCCCCNC(=O)NC2(C)CCS(=O)(=O)C2)CCS(=O)(=O)C1 (centres unmarked) | -1.11
30 | CN(C)CCN(C(=O)c1ccc(F)cc1)c1nc2c(F)cc(F)cc2s1 | -1.34
31 | CC(C)(C)NC(=O)CC12CC3CC(C1)CC(CC(=O)NC(C)(C)C)(C3)C2 | 0.962
32 | Oc1ccc(-c2nc3c4ccccc4c4ccccc4c3[nH]2)cc1 | 6.23
33 | CCOC(=O)C1=C(C)NC(=O)NC1c1ccc(C(C)C)cc1 (centres unmarked) | -1.97
34 | CC(=O)/N=c1/n(C)c2ccccc2n1CCOc1ccccc1 | -5.29
35 | CCCOc1ccc(CNC(=O)Cn2ncn3c(cc4sc(C)cc43)c2=O)cc1 | -5.32
36 | O=C1C(=O)N(C(=O)NC2CCCCC2)c2ccc(Br)cc21 | 1.03
37 | CC(=O)C1=C(C)N(C)C2=C(C(=O)c3ccccc32)C1c1ccccc1F (centres unmarked) | -3.41
38 | COc1ccc(-c2ccc(=O)n(CC(=O)NCCc3ccc(S(N)(=O)=O)cc3)n2)cc1 | 2.35
39 | CCN(CC)CCCNC(=O)c1nn2c(c1Cl)NC(c1ccc(C)cc1)CC2C(F)(F)F (centres unmarked) | 4.86
40 | CC1(C)CC2=Nc3cc(Cl)ccc3SC2=C(O)C1 | -1.97
41 | O=c1[nH]c(=O)c2c(-c3ccccc3)csc2[nH]1 | -7.99
42 | COC(=O)C1=NNC2C(=O)N(Cc3ccccc3)C(=O)C12 (centres unmarked) | -0.13
43 | Cc1ccc(-n2ncc(C(=O)NC3CCCC3)c2C2CCNCC2)cc1C | 2.28
44 | O=C(O)c1ccccc1C(=O)OCCCC(F)(F)C(F)(F)F | -5.08
45 | C1CCCN(c2nc(N3CCCCCC3)nc(N3CCCCCC3)n2)CC1 | -1.74
46 | Cc1nc(N2C(=O)c3oc4ccccc4c(=O)c3C2c2ccc(Cl)cc2)sc1C (centres unmarked) | 3.12
47 | CC(C)C[C@@H](C(=O)NCC#N)c1cccc(-c2ccc(C3(C)CCNCC3)cc2)c1 | 1.7
48 | O=C(Nc1cccc(Cl)c1)c1cnccn1 | 1.83
49 | O=C(NCC1CCCO1)c1cc(-c2ccc(Cl)s2)nc2ccccc12 (centres unmarked) | 2.44
50 | CC(C)=CCCCCCCN1CCN(c2ccc(C)cc2)CC1 | 1.62
51 | C=CCSc1nc2sc3c(c2c(=O)n1Cc1ccccc1)CCC3 | 1.4
52 | CC(C(=O)O)c1c(C(=O)O)[nH]c2ccccc12 (centres unmarked) | 1.91

Row | SMILES | % Inhibition @ 10 uM [%]
53 | O=C(COc1ccccc1)N1CCN(C(=O)c2cccc(F)c2)CC1 | -2.87
54 | O=C(c1sc2cc([N+](=O)[O-])ccc2c1Cl)N1CCCCC1 | -1.76
55 | CCN(C(=O)COc1ccc(Br)cc1C)c1ccccc1 | -1.92
56 | CCCC1Nc2c(C(=O)O)ccc([N+](=O)[O-])c2C2C=CCC12 (centres unmarked) | 6.7
57 | CN1CCCN(Cc2ccc(F)cc2)CC1 | -2.03
58 | Cn1cnnc1SC/C=C/c1ccccc1 | -8.01
59 | COc1cc2nc(S)nc(NCC3CCCO3)c2cc1OC (centres unmarked) | 0.708
60 | COc1ccc(OCC(=O)Nc2cc(OC)c(Cl)cc2OC)cc1 | -0.68
61 | CCN1C2=NCCN2c2ccccc21 | -4.18
62 | CCCCCn1c(C)c2c(OCC)cccc(=O)c2c1C | -4.51
63 | Cn1c(SCc2cccc(Cl)c2)nc2ccccc2c1=O | 7.02
64 | CCC(C)NC(=O)Cn1nc(C)c2sc3ccccc3c2c1=O (centres unmarked) | -3.93
65 | COc1ccc(C2=NOC(C(=O)Nc3cc(C)nn3-c3ccccc3)C2)cc1 (centres unmarked) | -3.45
66 | COc1cc(-c2nnn(CC(=O)NC3CCCC3)n2)cc(OC)c1OC | 2.99
67 | CCOC(=O)C1=C(CN2CCN(C3CCCCC3)CC2)NC(=O)NC1c1ccc(OC)cc1 (centres unmarked) | 5.44
68 | C=CCOc1ccc(Br)cc1CNc1cccc(C(=O)O)c1 | 3.49
69 | CC(=O)c1ccc(NC(=O)COc2ccccc2)cc1 | 7.66
70 | O=C(/C=C/c1ccco1)NCc1ccccc1F | 1.88
71 | CC(C)c1ccc(NC(=O)Nc2ccc(Cl)c(Cl)c2)cc1 | -2.12
72 | COc1ccc(/C=C2/SC(=S)N(CC(=O)O)C2=O)c(OC)c1 | 2.4
73 | COc1cccc(CN2CCN(Cc3ccccc3Br)CC2)c1OC | 13.4
74 | CCOC(=O)C1=C(CSCc2ccccc2)NC(=O)NC1c1ccc2c(c1)OCO2 (centres unmarked) | -0.403
75 | Cc1ccc(CCN2CC(C(=O)NCCN(C)C)CC2=O)cc1 (centres unmarked) | 4.81
76 | Cc1ccc(CCP(=O)(O)CCC(=O)O)cn1 | 0.408
77 | CC(NC=O)c1ccc(Br)cc1 (centres unmarked) | 14.3
78 | CSc1ncc(C(=O)NCc2ccco2)c(C(F)(F)F)n1 | 4.17

Row | SMILES | % Inhibition @ 10 uM [%]
79 | COCCNC(=O)c1cc(-c2ccncc2)nc2ccc(S(=O)(=O)N3CCC(C)CC3)cc12 | 3.93
80 | O=C(NCc1ccccc1)c1cccc(Br)c1 | -3.55
81 | Cc1ccc2c(Cl)c(C(=O)NCCCn3ccnc3)sc2c1 | 5.54
82 | COc1cc(Cl)cc(OC)c1NC(=O)Cc1cccs1 | -16.2
83 | Cc1cc(NC(=O)c2cc(-c3ccc(F)cc3)no2)nn1CC(=O)NCc1ccco1 | 5.11
84 | CCC(=O)c1c(OCc2ccc(Cl)cc2)ccc2c(C)cc(=O)oc12 | -0.45
85 | CN(C)/C=N/C(=O)/C(C#N)=C1\CCc2ccccc2N1 | 3.88
86 | CCc1c(O)nc(SCC(=O)N(CC)CC)n(-c2ccccc2)c1=O | 4.22
87 | COc1cccc(NC(=O)c2ccc3c(c2)C(=O)N(CC2CCCO2)C3=O)c1 (centres unmarked) | -9.07
88 | O=C(NCc1cccnc1)C1CCC(=O)N1CCc1ccccc1 (centres unmarked) | 4.81
89 | Cc1ccc(CCNC(=O)c2cc3c(s2)CS(=O)(=O)C3)cc1 | -9.48
90 | Cc1ccc(S(=O)(=O)Nc2ccccc2C(=O)NCC(C)C)cc1 | -2.32
91 | O=C1/C(=C/c2ccc(O)c(O)c2)Oc2ccccc21 | -2.8
92 | COc1ccccc1CNc1ncnc2onc(C)c12 | -4.78
93 | CC1CCCC(C)N1CC(O)COCc1ccccc1 (centres unmarked) | -7.39
94 | O=C(O)c1cn(-c2ccc(N3CCCC3)c(F)c2)c2c(F)c(N3CCOCC3)c(F)cc2c1=O | -1.04
95 | Cc1ccc2c(=O)cc(C(=O)Nc3nnc(C(C)C)s3)oc2c1C | 0.248
96 | COc1ccc(-c2nc3s/c(=C\C=C\c4ccccc4)c(=O)n3n2)cc1 | -3.06
97 | CCC(C(=O)n1nnc2ccccc21)c1ccccc1 (centres unmarked) | -3.04
98 | Cc1ccc(Nc2nc(-c3ccc(Cl)cc3)cs2)cc1C | 0.986
99 | COc1cc(C2C3=C(O)CCCC3=NC(C)=C2C(=O)Nc2ccccn2)ccc1OCc1ccccc1 (centres unmarked) | 0.983
100 | O=C(O)c1cccc([N+](=O)[O-])c1C(=O)Nc1ccc([N+](=O)[O-])cc1 | -2.62
101 | Cc1cc(O)n2nc(NC(=O)c3ccccc3)nc2n1 | 0.401
102 | Cn1c(SCC(=O)N(CCO)CCO)nc2ccccc2c1=O | 4.84
103 | Sc1nn2nnnc2c2ccccc12 | 6.07
104 | CCCCNC(=O)NC(C(F)(F)F)C(F)(F)F | 0.986

From paper PMC6919601, “Identification of Plasmodium dipeptidyl aminopeptidase allosteric inhibitors by high throughput screening” (PLoS ONE, 2019)
